± gives the standard deviation of the averaged measurements. Whole data set: some 33,000 sequences, median “E-score (dimensionless, -0.5 to 0.5)” near -0.049, cut for the highest 2% near 0.37. The list shows a part of the results.
These sequences were tested on T1, PmTbr T-box DNA-binding domain (GST fusion) (assay: PBM E-score of 8-mer (E-score (dimensionless, -0.5 to 0.5)); Tbr is Tbrain of the sea star Patiria miniata (Pm) or the sea urchin Strongylocentrotus purpuratus (Sp); higher = stronger binding preference; most listed sequences are background and not binding sites). Settings: the construct has about 5 more residues each side.
T1 sequence: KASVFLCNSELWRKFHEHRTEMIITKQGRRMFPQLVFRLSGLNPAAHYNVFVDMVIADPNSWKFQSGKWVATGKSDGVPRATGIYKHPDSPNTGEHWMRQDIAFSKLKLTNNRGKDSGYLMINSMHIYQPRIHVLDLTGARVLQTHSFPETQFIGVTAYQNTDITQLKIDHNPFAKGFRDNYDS
Method in brief: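 Primer extension turned Universal Agilent oligonucleotide arrays double-stranded. They were incubated with 200 nM protein in PBS (pH 7.5); the protein was a GST-fused Tbr T-box DNA-binding domain expressed in BL21 E. coli at 20 °C and purified on glutathione. Every ungapped 8-mer was scored from the scanned, quantified probe intensities, and the Universal PBM Analysis Suite gave each an enrichment E-score averaged over duplicate arrays.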

Sequence	PBM E-score of 8-mer
ACGCGGAC	0.0056 ± 0.00074
GTCGTAGA	-0.234 ± 0.027
AGCCCCCT	-0.31 ± 0.029
AGTACCTG	-0.0965 ± 0.026
CCATTCTA	-0.138 ± 0.0054
ACTTCGTG	0.109 ± 0.041
ACGCGGCT	-0.00017 ± 0.077
AGCTACAT	-0.192 ± 0.037
CGAAAATC	0.00722 ± 0.052
TATCGTCA	0.093 ± 0.051
CGAGATCA	0.0764 ± 0.039
CATTGCCA	0.149 ± 0.056
CCACTCCA	-0.0105 ± 0.011
CTTCGGGA	-0.106 ± 0.052
CCGCGTGA	0.319 ± 0.023
TCAAGCAA	-0.14 ± 0.071
AGCCGACG	-0.0152 ± 0.035
AAGCGATT	-0.21 ± 0.091
CCATAGTC	-0.0666 ± 0.086
GAATGGTC	-0.149 ± 0.0021
ACAATGGT	-0.00549 ± 0.02
ACCTGTAC	-0.144 ± 0.0071
AACCCCAA	-0.0877 ± 0.0096

Sequence	PBM E-score of 8-mer
ATTCCAGG	-0.137 ± 0.038
AGACCTCG	-0.2 ± 0.063
CCCGTCCA	-0.24 ± 0.003
GATAAGTA	0.00155 ± 0.023
GATCCGCA	-0.00764 ± 0.031
CCCGCATC	-0.127 ± 0.013
CCTGACAA	0.207 ± 0.027
CGAACGAC	0.14 ± 0.0089
CCAGGGTC	-0.00602 ± 0.0065
TACGGCAA	-0.115 ± 0.016
AGGCTGTC	0.0531 ± 0.041
CATGCGGG	-0.157 ± 0.015
CAAGCGTC	0.114 ± 0.014
AGGCGGGA	0.0518 ± 0.087
ATGGCTAC	-0.222 ± 0.017
GAGACATC	-0.188 ± 0.076
GACTACTA	-0.18 ± 0.041
CTATAAGC	-0.0168 ± 0.053
AAGAAAAT	0.0406 ± 0.15
CAGGTACG	-0.0533 ± 0.12
CGCAATCA	0.136 ± 0.0055
GCTGCGTA	-0.0658 ± 0.0014
GCGCGGAA	0.109 ± 0.0046

Sequence	PBM E-score of 8-mer
CAGGTGTA	0.3628 ± 0.0011
GTCCAATA	-0.21 ± 0.0092
GAAGGGCC	-0.286 ± 0.023
GAGACGCA	-0.229 ± 0.031
CAGTGAAC	-0.0221 ± 0.0075
GTAACCAA	-0.0232 ± 0.059
ACTTTCAA	-0.0407 ± 0.011
GATAAGAC	-0.129 ± 0.037
GACGTAAA	-0.0969 ± 0.059
GCCTGCGC	-0.115 ± 0.052
ACACCGGA	0.0969 ± 0.082
CGGTGGAC	-0.204 ± 0.011
GATGTGAC	0.308 ± 0.017
CACTCGAG	0.04 ± 0.028
GATCGATC	-0.186 ± 0.047
CCTCCTCC	-0.142 ± 0.012
GACATGGA	-0.0649 ± 0.032
CCTGGAGA	-0.0143 ± 0.012
CAACTACA	0.216 ± 0.015
CCCTGGGA	-0.131 ± 0.0026
ATGTACCA	-0.237 ± 0.036
GCCAGCCA	-0.0543 ± 0.036
TAATGTAA	-0.27 ± 0.024

Sequence	PBM E-score of 8-mer
AGCAGCCA	-0.0759 ± 0.044
AGAAACCC	-2e-05 ± 0.0016
CCCTGAAG	-0.169 ± 0.038
GACTTGAA	-0.206 ± 0.0084
AGAAAGCC	-0.195 ± 0.021
CTCTCCTC	-0.252 ± 0.049
ACCCGCGG	0.095 ± 0.14
CGTTCTAC	-0.0889 ± 0.0094
GCTTACAA	-0.163 ± 0.027
AGCCTCGA	-0.134 ± 0.031
AAAGGGAT	-0.335 ± 0.045
AGTCACCG	-0.0939 ± 0.065
CAAGAAAA	-0.12 ± 0.099
TACCCGCA	-0.0772 ± 0.0093
CAATGGAG	-0.113 ± 0.019
CTCGGGCA	-0.136 ± 0.062
CTTAGTGA	0.164 ± 0.013
AGACCATA	-0.187 ± 0.018
CGAGCCGA	-0.175 ± 0.045
ATGACTCC	-0.2667 ± 0.0017
GGTACCCA	0.0936 ± 0.0037
AAGGGCCG	-0.249 ± 0.02
AACATGCC	-0.165 ± 0.0089

Sequence	PBM E-score of 8-mer
ATTACCAA	-0.0698 ± 0.092
CCGCTACA	0.0223 ± 0.033
GCAAGTCC	-0.0159 ± 0.0022
GGTGAATA	0.0919 ± 0.092
AAACAGAC	-0.0406 ± 0.051
ACGGACTA	0.0169 ± 0.079
CCGTCGCC	0.155 ± 0.0055
ATCTGATC	-0.118 ± 0.025
CGCTTAAG	0.0665 ± 0.054
TAACCGAA	-0.15 ± 0.067
AACGTTCA	-0.0811 ± 0.02
ATCAAAAT	-0.163 ± 0.072
GGTAGGAA	-0.264 ± 0.05
CATGCGTA	-0.223 ± 0.034
AGGGCATC	-0.0368 ± 0.049
AATACTAA	-0.0755 ± 0.1
CCAAGAAA	-0.0828 ± 0.058
TGCACGCA	-0.145 ± 0.11
CATCCAGG	0.0557 ± 0.084
GGAACCAC	-0.236 ± 0.032
AGCGTATA	-0.0901 ± 0.025
AAGCCGGC	-0.18 ± 0.041
ATATACTC	-0.2091 ± 0.0019

Sequence	PBM E-score of 8-mer
CACTATAA	-0.00267 ± 0.037
AGCAATTG	-0.0524 ± 0.049
ACGCAGCT	0.109 ± 0.075
CCAAGGTC	-0.114 ± 0.0076
GCGGTCTA	-0.249 ± 0.022
AAATCCGA	0.017 ± 0.0061
CGTGGTAG	0.000165 ± 0.019
GTGACCTA	0.0283 ± 0.1
CGCTGATC	0.168 ± 0.0063
CCCCATAC	-0.103 ± 0.12
CCTTGTAC	-0.0582 ± 0.036
AGCTCAGG	-0.185 ± 0.027
AGTTTTGG	-0.118 ± 0.033
CCAACGGA	0.156 ± 0.0032
AACGATCT	-0.0792 ± 0.027
GCTACTCA	0.00547 ± 0.1
ATACAGGA	-0.191 ± 0.0043
AGCGCACT	-0.0886 ± 0.15
ACCATCGG	-0.0744 ± 0.049
ACCGCGTA	-0.0155 ± 0.049
CTCAACTC	-0.12 ± 0.0054
AGAAACTC	0.0212 ± 0.015
CCGGTCAC	0.132 ± 0.061

Sequence	PBM E-score of 8-mer
AGGGACCA	-0.254 ± 0.011
AGTCTACC	-0.0289 ± 0.0029
ACTGTTAG	0.217 ± 0.017
GCTCCGCC	-0.243 ± 0.039
ACGTTCGG	0.0612 ± 0.0037
GCACGAGC	-0.00463 ± 0.02
GCATAGAC	-0.143 ± 0.044
AGAAACAT	-0.156 ± 0.15
AGGACAGC	-0.14 ± 0.0042
GACACCCC	0.409 ± 0.031
CACTAACC	0.0973 ± 0.002
ACAAGTGA	0.277 ± 0.034
CGAAGTGA	0.364 ± 0.0058
ATGAGCAA	-0.128 ± 0.047
AAGACGAT	-0.107 ± 0.042
GCGTACTA	-0.3074 ± 0.0011
AGCGCGCC	0.0511 ± 0.005
AAAGGTAC	-0.152 ± 0.021
AATCGATG	-0.119 ± 0.011
ATACTGAG	-0.175 ± 0.018
